# Assay results from PMC6919601, “Identification of Plasmodium dipeptidyl aminopeptidase allosteric inhibitors by high throughput screening” (PLoS ONE, 2019).
# Out of some 110,000 compounds screened, about 230 (0.21%) showed an effect of 50% or more. The list shows a part of the results.
# Molecular target: DPAP1 (Plasmodium falciparum, UniProt Q8IIJ9)
# Experiment: primary screen, percent inhibition; read by cleavage of a fluorogenic dipeptide substrate; higher = more effect of the substance
# Parameters: species or system P. falciparum D10 trophozoite lysates; single well
# 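Also: 30 min substrate incubation versus DMSO and 10 µM JCP410 controls.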
# Sequence of DPAP1 (Q8IIJ9 whole entry, looked up): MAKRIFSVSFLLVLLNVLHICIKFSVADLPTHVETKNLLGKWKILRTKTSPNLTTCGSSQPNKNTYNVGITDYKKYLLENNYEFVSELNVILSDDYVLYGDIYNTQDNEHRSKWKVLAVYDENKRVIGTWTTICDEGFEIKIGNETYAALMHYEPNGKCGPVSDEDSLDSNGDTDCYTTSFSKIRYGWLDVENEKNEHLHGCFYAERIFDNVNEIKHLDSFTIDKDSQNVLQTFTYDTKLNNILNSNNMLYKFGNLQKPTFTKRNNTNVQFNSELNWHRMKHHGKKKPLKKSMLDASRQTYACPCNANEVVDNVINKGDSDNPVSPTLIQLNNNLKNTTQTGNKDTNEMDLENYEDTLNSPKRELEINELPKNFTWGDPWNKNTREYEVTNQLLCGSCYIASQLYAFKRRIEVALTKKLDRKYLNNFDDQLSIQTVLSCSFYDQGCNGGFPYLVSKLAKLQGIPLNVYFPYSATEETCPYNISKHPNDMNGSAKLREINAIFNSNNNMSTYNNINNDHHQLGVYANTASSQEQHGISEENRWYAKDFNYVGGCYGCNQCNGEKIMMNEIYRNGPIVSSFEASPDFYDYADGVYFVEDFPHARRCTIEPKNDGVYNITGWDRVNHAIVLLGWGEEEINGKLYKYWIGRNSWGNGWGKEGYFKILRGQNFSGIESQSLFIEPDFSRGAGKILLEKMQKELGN
row,Structure (SMILES),% Inhibition @ 10 uM [%]
1,COc1ccc(-n2nnnc2C2CCN(S(=O)(=O)c3c(C)cc(C)cc3C)CC2)cc1,1.67
2,CC1CCN(S(=O)(=O)c2ccc(NC(=O)COc3ccc(Br)cc3)cc2)CC1,-1.61
3,Cc1ccc2cnn(CCCC(=O)NC3CCCCCC3)c2c1,-8.57
4,O=C(CSC1=NCCS1)N1CCN(c2ccccc2)CC1,-5.63
5,CSC1=NSC2=NC(=O)/C(=C\c3ccc(C(C)C)cc3)C(=N)N12,1.83
6,O=C(COc1ccccc1)Nc1ccc(S(=O)(=O)N2CCOCC2)cc1,0.727
7,CCO/C(O)=C1/C(C)=NC2=C(C(=O)CCC2)C1c1ccc(OCC)cc1 (stereo not drawn),-8.79
8,Cc1ccc(-c2c(CN3CCOCC3)csc2C)cc1,4.65
9,Cc1ccccc1Cn1nc(C)c(NC(=O)c2c(C)nn(C(F)F)c2C)c1C,-0.545
10,O=C(C1CCCN(c2ncnc3onc(-c4ccc(F)cc4)c23)C1)N1CCc2ccccc2C1 (stereo not drawn),-4.44
11,CCC(C(=O)NCCc1ccccc1OC)n1nc(C)c2sc3ccccc3c2c1=O (stereo not drawn),4.79
12,CCOc1ccc(C(=O)NC2CC2)cc1,1.43
13,Cc1ccccc1CSc1nc(=O)c2c(n1C)NC(=O)CC2c1ccc(F)cc1F (stereo not drawn),2.25
14,CCN(C(=O)c1cc2c(=O)n3ccccc3nc2n1C)c1ccccc1,5.17
15,COc1cc(CC(C)N2CCN(C(C)=O)CC2)ccc1O (stereo not drawn),0.273
16,O=S(=O)(Nc1cccc(C(F)(F)F)c1)c1ccccc1Cl,-5.23
17,Cc1ccc(Cn2nnc3c(=O)n(C/C=C/c4ccccc4)cnc32)cc1,4.41
18,CC(NC(=O)c1noc2c1CCc1ccccc1-2)c1ccccc1 (stereo not drawn),-5.09
19,O=C(CSc1c(O)nc2ccc(Cl)cc2c1-c1ccccc1)NCc1ccco1,0.561
20,Brc1ccc(OCc2nn3c(-c4ccncc4)nnc3s2)cc1,37.3
21,N#Cc1ccc(NC(=O)CSc2ccccn2)cc1,3.72
22,Cc1ccc2c(c1)C(=O)N(c1cccc(C(=O)O)c1)C2=O,4.05
23,Cc1ccc(NS(=O)(=O)c2ccc(F)cc2)cc1,0.526
24,CCN1CCC(N(CCO)Cc2ccccc2)CC1,-4.75
25,N#CCNC(=O)[C@H](Cc1ccccc1)NC(=O)c1cc(-c2ccccc2)c(-c2ccccc2)s1,15.8
26,COc1ccccc1C(=O)Nc1cc(C(F)(F)F)ccc1Br,-2.42

row,Structure (SMILES),% Inhibition @ 10 uM [%]
1,CCCN1C(=O)c2[nH]nc(-c3ccc(F)cc3)c2C1c1cccnc1 (stereo not drawn),2.29
2,CC1(C)CC(=O)C(C(C2=C(O)CC(C)(C)CC2=O)c2c3ccccc3cc3ccccc23)C(=O)C1 (stereo not drawn),1.7
3,Cc1cccc(CN2CCN(CC(=O)O)C2=O)c1,1.91
4,CC(C)C[C@@H](NC(=O)c1ccc(N2CCN(C)CC2)cc1)C(=O)NCC#N,0.173
5,O[C@H]1CC[C@H](NC2CCN(CCc3ccccc3)CC2)CC1,3.18
6,Cc1ccc(N2CC(C(=O)Nc3cccc(Cl)c3)CC2=O)cc1C (stereo not drawn),2.25
7,N#CC1=C(SCC(N)=O)NC(=O)CC1c1cccc(Oc2ccccc2)c1 (stereo not drawn),-1.64
8,CC(=O)c1sc(NC(=O)COc2ccc(Br)cc2)nc1C,-0.425
9,COc1cccc(CCN2CCC(CNS(=O)(=O)c3cc(-c4cc(C)no4)ccc3C)CC2)c1,-3.98
10,Cc1ccccc1NC(=O)CN1C(=O)S/C(=C/c2cccs2)C1=O,3.53
11,CC1=C(CCN2CCN(c3ccc(Cl)cc3)CC2)C(C)(C)CCC1,-1.41
12,COc1ccc(/C=C2\C(=O)NC(=O)N(C)C2=O)c(OC)c1OC,1
13,Cc1ccc(/C(N)=N/OC(=O)COc2ccc(C(C)C)cc2)cc1,1.75
14,CC(C)(C)N1CSC(COc2cccc3ccccc23)C1 (stereo not drawn),-3.67
15,CCN(CC)S(=O)(=O)c1cnccc1N1CCN(C(C)C)CC1,-10.2
16,NC(=O)c1c(NC(=O)C2CCCN(C(=O)c3ccc4c(c3)OCCO4)C2)sc2c1CCCC2 (stereo not drawn),5.43
17,N#CC1=C(N)N(c2ccc(Br)cc2F)C2=C(C(=O)CCC2)C1c1ccsc1 (stereo not drawn),-9.55
18,Cc1cnc(NC(=O)c2c(O)c3ccccc3n(CC(C)C)c2=O)s1,-8.49
19,CCOC(=O)C1CCCN(C2C3CC4CC(C3)CC2C4)C1 (stereo not drawn),-4.75
20,Cc1cc(C(=O)NCCCc2ccccc2)c2c(C)nn(-c3cccc(F)c3)c2n1,2.52
21,CC1Cc2c([nH]c3ccccc23)C(=O)N1 (stereo not drawn),0.989
22,C=CCOc1c(Cl)cc(CNC2CCCCC2)cc1OC,4.42
23,Cc1c(C(=O)N2CCC3(CC2)OCCO3)sc2nc(-c3ccccc3)cn12,-3.7
24,CCCCNc1cc(=O)n(C)c(=O)n1C,9.1
25,Cc1cc(C)nc(NC(=O)OCc2ccccc2)n1,1.08
26,Cc1ccc(OCC(=O)Nc2ccc3c(c2)OCO3)c(C)c1,0.145

row,Structure (SMILES),% Inhibition @ 10 uM [%]
1,CC1CCc2c(sc(NC(=O)c3cccs3)c2C(=O)N2CCCCC2)C1 (stereo not drawn),-1.5
2,Cc1ccc(-n2nnnc2SCCOc2ccc(C)c(C)c2)cc1,0.484
3,COc1ccccc1N1CCN(CCCN2CC(=O)N3CCCCC3C2=O)CC1 (stereo not drawn),1.39
4,CN1C(=O)c2ccccc2C(C(=O)NCCc2ccsc2)C1c1cccs1 (stereo not drawn),-2.37
5,O=C1CC(c2ccccc2C(F)(F)F)c2cc3c(cc2N1)OCO3 (stereo not drawn),-3.09
6,COc1ccc2c(c1)c(C#N)c1n2CCN=C1N(C)C,-3.22
7,Cc1ccc(CS(=O)(=O)CCC(=O)NCc2ccccc2Cl)cc1,8.32
8,O=C1C2=C(N=C3C(=C(O)c4ccccc43)C23C(=O)Nc2ccccc23)c2ccccc21 (stereo not drawn),3.79
9,Cc1cc(C)n2nc(SCC(=O)N3CCC4(CC3)OCCO4)nc2n1,0.955
10,Cc1c(/N=C(\S)NCCc2ccccc2)c(=O)n(-c2ccccc2)n1C,3.15
11,CC(Cc1ccc(F)cc1)N[C@H]1CC[C@H](O)CC1 (stereo partly drawn),0.273
12,CC1COC(c2cccn2Cc2ccc(F)cc2Cl)=N1 (stereo not drawn),-3.39
13,Cn1ccc(C#CCN2CCOCC2)n1,-4.26
14,O=C(O)c1ccc2c(c1)C(=O)N(c1cccc(/C=C/C(=O)c3cccc(N4C(=O)c5ccc(C(=O)O)cc5C4=O)c3)c1)C2=O,3.25
15,CC(C)(C)NS(=O)(=O)Nc1ccccc1[N+](=O)[O-],-4.96
16,CCOc1ccc(Cc2c(C)nc3c(C)cccc3c2Cl)cc1,-5.62
17,COCC1=Nc2ncnn2C(c2cc(Br)ccc2OC)/C1=C(/O)OC (stereo not drawn),0.0842
18,CC12CN3CC(C)(CN(C1)C3c1ccccn1)C2O (stereo not drawn),1.67
19,O=C1OCC/C1=C\c1ccc(O)cc1,-0.0217
20,O=C(CSc1ccccn1)Nc1ccc(F)c(F)c1,-4.48
21,CN(C)CCCO/N=C(\c1ccccc1)c1ccncc1,-2.42
22,O=c1c(O)c(-c2cccc(Cl)c2Cl)oc2ccccc12,-3.77
23,COc1cccc(OC)c1C(=O)N1CCCCC1,1.41
24,Cc1cccc(OCC(=O)Nc2nc(-c3ccc(S(=O)(=O)N4CCOCC4)cc3)cs2)c1,6.15
25,Cc1cccc2c1-c1sc(C(=O)NCCN3CCCCC3C)cc1CO2 (stereo not drawn),-3.08
26,CCC1CCC(NCc2cccc(OC)c2OC)CC1 (stereo not drawn),-1.78

row,Structure (SMILES),% Inhibition @ 10 uM [%]
1,Cc1ccc(-n2ncc3c(N4CCN(C)CC4)ncnc32)c(C)c1,3.36
2,CCCCc1c(C)nc2ccc(C(=O)O)cc2c1S,-3.77
3,CC(=O)Nc1ccc2c(c1)N(C(C)=O)c1ccccc1CC2,-4.54
4,Cc1cc(NC(=O)c2cncc(Br)c2)no1,8.75
5,COc1cc(C2c3c(oc4cc(C)cc(C)c4c3=O)C(=O)N2Cc2ccco2)ccc1O (stereo not drawn),4.83
6,N#C/C(=C/c1ccc(-c2ccc(Br)cc2)o1)C(=O)O,-1.29
7,OCCN1CCN(CCCC(c2ccc(F)cc2)c2ccc(F)cc2)CC1,1.19
8,N#CCNC(=O)[C@H](Cc1c(F)cccc1F)NC(=O)c1cc(-c2ccccc2Cl)no1,-5.2
9,CC(C(=O)NCc1ccccc1Cl)n1ccc2cc(S(=O)(=O)N3CCCC3)ccc21 (stereo not drawn),-4.77
10,COCCn1c(CCC(=O)NCc2ccccc2Cl)nc2cccnc21,-0.72
11,CCn1nc(-c2ccc(C(F)(F)F)cc2)nc2c(=O)n(C)c(=O)nc1-2,-6.74
12,CCN(CC)CCOC(=O)/C=C/c1ccccc1,4.54
13,CC(=O)N1Cc2ccccc2-c2ccccc2C1,-3.27
14,CN1CCN(Cc2cc(Br)cs2)CC1,4.57
15,CCC(C)NCc1c(C(=O)O)n(Cc2ccc(OC)cc2)c2ccccc12 (stereo not drawn),-4.07
16,CC1CCN(C(=O)/C=C/c2cccc([N+](=O)[O-])c2)CC1,-8.37
17,CCc1nnc(NC(=O)c2cc(=O)c3cc(Cl)ccc3o2)s1,1.9
18,O=P(CCNCc1cccnc1)(c1ccccc1)c1ccccc1,-3.41
19,CCOC(=O)N1CCN(S(=O)(=O)c2c[nH]c(C(=O)OC)c2)CC1,-1.11
20,CCOc1ccc2nc(NC(=O)c3cccn(OCc4ccccc4)c3=O)sc2c1,-3.44
21,COc1ccccc1CNC(=O)c1cc(S(=O)(=O)N2CCCCC2)c[nH]1,1.45
22,O=c1c(-c2ccccc2)coc2c(CN3CCCCCC3)c(O)ccc12,1.26
23,Cc1ccccc1-n1c(SCc2ccccc2)nnc1-c1cccnc1,0.238
24,COCCn1c(=N)c(C(=O)NCC2CCCO2)cc2c(=O)n3cc(C)ccc3nc21 (stereo not drawn),94.3
